Results from PubChem BioAssay AID504339 (National Center for Advancing Translational Sciences (NCATS), 2011).
About 17,000 (4.4%) of roughly 390,000 compounds were called active. The shares of active, inactive and inconclusive entries below differ from those in the screen. Calls come from the whole dose curve; as a rule, active = well fitted inhibition curve with a large enough effect; inconclusive = small, poorly fitted or top-dose-only effect; inactive = no such curve, though single readings can be large or run the other way. Potencies beside an inconclusive call are fits to weak or partial responses and may not hold up.

molecular target: Lysine-specific demethylase 4A (Homo sapiens) (UniProt O75164); test: qHTS Assay for Inhibitors of JMJD2A-Tudor Domain; details: AlphaScreen JMJD2A-Tudor / H3K4me3 peptide binding; series mostly up to 114 µM; note: nearly all actives have a fitted effect of over 50% in size
Potency is the fitted concentration of half-maximal effect; tags give direction and shape of the fitted curve.

Chain of UniProt O75164 (O75164 whole entry, looked up, the tested form may be a part): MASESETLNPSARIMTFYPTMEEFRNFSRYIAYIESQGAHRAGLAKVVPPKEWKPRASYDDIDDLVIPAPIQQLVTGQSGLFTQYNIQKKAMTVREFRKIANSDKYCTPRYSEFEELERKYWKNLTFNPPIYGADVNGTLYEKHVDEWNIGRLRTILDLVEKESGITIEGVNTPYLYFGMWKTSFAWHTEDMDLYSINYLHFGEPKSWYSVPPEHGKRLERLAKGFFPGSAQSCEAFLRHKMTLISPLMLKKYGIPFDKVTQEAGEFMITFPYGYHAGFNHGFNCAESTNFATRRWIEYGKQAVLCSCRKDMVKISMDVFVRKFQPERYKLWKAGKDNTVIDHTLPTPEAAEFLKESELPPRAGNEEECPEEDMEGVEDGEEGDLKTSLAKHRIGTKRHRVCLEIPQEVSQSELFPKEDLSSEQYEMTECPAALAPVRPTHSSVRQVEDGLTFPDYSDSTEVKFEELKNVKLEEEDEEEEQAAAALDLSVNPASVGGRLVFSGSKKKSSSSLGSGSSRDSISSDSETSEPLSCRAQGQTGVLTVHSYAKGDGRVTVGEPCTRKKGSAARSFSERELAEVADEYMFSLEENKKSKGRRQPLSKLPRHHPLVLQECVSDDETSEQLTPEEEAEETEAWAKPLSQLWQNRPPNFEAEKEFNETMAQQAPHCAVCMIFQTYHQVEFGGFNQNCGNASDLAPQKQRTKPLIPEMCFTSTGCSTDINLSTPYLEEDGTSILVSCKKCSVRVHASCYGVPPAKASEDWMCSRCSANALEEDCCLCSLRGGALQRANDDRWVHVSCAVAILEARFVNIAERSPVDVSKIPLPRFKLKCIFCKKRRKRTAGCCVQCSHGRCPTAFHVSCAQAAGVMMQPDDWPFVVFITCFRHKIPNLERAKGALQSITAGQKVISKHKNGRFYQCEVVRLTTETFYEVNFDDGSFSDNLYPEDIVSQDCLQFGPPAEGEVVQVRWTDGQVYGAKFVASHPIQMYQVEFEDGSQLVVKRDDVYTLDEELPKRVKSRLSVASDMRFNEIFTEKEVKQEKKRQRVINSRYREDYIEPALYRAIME

Compound	Potency
Clc1ccc(-c2nc3n(n2)Cc2ccccc2-3)cc1	inconclusive: 79.4 µM [inhibitor, partial curve, poor fit]
CC1=C(C(=O)Nc2cccc(C(=O)NC3CCCC(C)C3C)c2)SCCO1 (stereo unspecified)	inconclusive: 50.1 µM [inhibitor, partial curve, poor fit]
COc1ccc(CCC(=O)NCCNC(=O)CCc2ccc(OC)cc2)cc1	inactive
Cc1cc(C)c2oc(-c3ccc(C)c(NC(=O)/C=C/c4ccco4)c3)nc2c1	active: 56.2 µM
CNC(=O)CN(C1CCCCC1)S(=O)(=O)c1ccc(OC)c(Cl)c1	inactive
Cc1nc(N2CCCC2)ncc1C(=O)N1CCN(c2ccccc2F)CC1	inactive
COc1ccccc1NCC(=O)c1ccc(Cl)cc1	inconclusive: 25.1 µM [inhibitor, full curve]
CC(=O)c1ccc([C@@H]2C[C@]34CN(Cc5cccc(C(F)(F)F)c5)S(=O)(=O)[C@H]3C[C@H]2O4)cc1	inactive
O=C(CCN1C(=O)c2ccncc2C1=O)Nc1ccc2c(c1)OCCO2	inconclusive: 79.4 µM [inhibitor, partial curve]
CCN1CCN(c2nc(SC)nc3sc4c(c23)CC(C)(C)OC4)CC1	inconclusive: 89.1 µM [inhibitor, single point]
Cn1c(=O)n(CC(=O)OCc2ccccc2)c(=O)c2c1nc1n2CCCN1C1CCCCC1	inconclusive: 56.2 µM [inhibitor, partial curve]
CN(C)c1ccc(/C=N/N2C(=S)SC(C)(C)C2N(O)C(=O)Nc2ccc([N+](=O)[O-])cc2)cc1 (stereo unspecified)	active: 56.2 µM
O=C(Nc1ccc(OCC(=O)N2CCOCC2)cc1)c1cccc(Cl)c1	inactive
CCOC(=O)C1=C(N)N(c2ccc(C)cc2)C2=C(C(=O)CCC2)C1c1cccs1 (stereo unspecified)	inconclusive: 35.5 µM [inhibitor, partial curve]
CCOc1c(CNc2nnnn2C)cccc1OC	inactive
COC(=O)C(=O)/C=C(\O)c1ccc(C)cc1	active: 79.4 µM
O=C(OCCCN1CCOCC1)c1ccc(O)c(O)c1	active: 31.6 µM
O=C(CNC(=O)C(c1ccccc1)c1ccccc1)N/N=C\c1cccc(O)c1	inactive
C=CC[C@H]1Cc2c(cccc2[N+](=O)[O-])[C@H](CC=C)N1	inactive
Cc1cccc(NC(=O)C2=C(O)c3ccccc3N(C)S2(=O)=O)c1	inconclusive: 89.1 µM [inhibitor, single point]
Cc1[nH]n(-c2ccccc2)c(=O)c1/C=N/Nc1nncc(-c2ccccc2)n1	active: 3.55 µM
CN1CCC(=NNc2ncnc3sc4c(c23)CCCC4)CC1	inconclusive: 39.8 µM [inhibitor, single point]
CCC(=O)Nc1nnc2n1CCS2	active: 20 µM
O=C1OCCN1CCNCc1cn(-c2ccc(F)cc2)nc1-c1ccccc1Cl	inactive

Compound	Potency
Cc1cc(CN2CCN(c3ccc(F)cc3)CC2)cs1	inconclusive: 79.4 µM [inhibitor, partial curve]
CCOC(=O)C1CCCN(Cc2ccc(OCc3ccccc3)cc2)C1 (stereo unspecified)	inconclusive: 89.1 µM [inhibitor, single point]
N#C/C(=C\c1ccc[nH]1)S(=O)(=O)c1ccccc1	inconclusive: 50.1 µM [inhibitor, partial curve]
COc1cccc(/C=N/N2CCN(C3c4ccccc4-c4ccccc43)CC2)c1O	inconclusive: 44.7 µM [inhibitor, partial curve]
CC1(OC(=O)C2CCCC2)C(=O)C=C2C=C(c3ccsc3)N(Cc3ccc4c(c3)OCO4)C=C2C1=O (stereo unspecified)	inconclusive: 63.1 µM [inhibitor, partial curve]
COC(=O)c1ccc([C@H]2Nc3ccc(S(=O)(=O)Nc4cccc(C)c4)cc3[C@H]3C=CC[C@H]32)cc1	active: 35.5 µM
Cc1cc(C(=O)COC(=O)[C@H](C)NC(=O)c2ccco2)c(C)n1Cc1ccco1	inconclusive: 89.1 µM [inhibitor, partial curve]
CCCCOc1ccc(C(=O)N(Cc2ccco2)Cc2ccco2)cc1	inconclusive: 63.1 µM [inhibitor, partial curve, poor fit]
O=C(c1ccc(Cl)c(S(=O)(=O)N2CCc3ccccc32)c1)N1CCN(c2ccccc2O)CC1	inconclusive: 22.4 µM [inhibitor, full curve]
COc1cc(/C=C2/C(=N)N3N=C(CC(=O)N4CCOCC4)SC3=NC2=O)ccc1OCc1ccc(F)cc1	active: 4.47 µM
Cc1cccc(-n2cnc(C(=O)N/N=C\c3ccc(Br)cc3)c2)n1	inconclusive: 28.2 µM [inhibitor, partial curve]
CCc1ccc(NC(=O)C(CC)Sc2nc3cc4c(cc3c(=O)n2Cc2ccco2)OCO4)cc1 (stereo unspecified)	inactive
CCCCNS(=O)(=O)c1ccc2nc(SCC(=O)Nc3ccccc3Cl)[nH]c2c1	inconclusive: 63.1 µM [inhibitor, single point]
COc1ccc(NC(=S)N(CCc2c(C)[nH]c3ccc(C)cc23)Cc2cccs2)cc1	inconclusive: 39.8 µM [inhibitor, partial curve]
O=C(Nc1cccc2ncccc12)c1ccc(Cl)cc1	active: 3.16 µM
Cc1ccc(CNC(=O)c2ccc(Cl)c(S(=O)(=O)N3CCCCC3)c2)cc1	inactive
COC(=O)Cc1c(C)nc2nc(-c3ccc(C)cc3)[nH]n2c1=O	inactive
COc1ccccc1CNS(=O)(=O)CCNCCc1ccccc1	inactive
CCNc1nc(NC(C)(C)C)nc(SC(C(C)=O)C(C)=O)n1	inconclusive: 89.1 µM [inhibitor, single point]
CCN(Cc1ccccc1)S(=O)(=O)c1ccc(F)c(C(=O)Nc2cc(C(F)(F)F)ccc2Cl)c1	inactive
Cc1[nH]c2ccc(F)cc2c1CCN(Cc1ccncc1)C(=S)Nc1ccc(F)cc1	inconclusive: 56.2 µM [inhibitor, partial curve]
COc1ccc2c(c1)C1=NN(/C(C)=C/C(C)=O)C(c3cccc(F)c3)C1CC2 (stereo unspecified)	inconclusive: 39.8 µM [inhibitor, partial curve]
Cn1nnnc1SC(C(=O)Nc1cccc(C(F)(F)F)c1)c1ccccc1 (stereo unspecified)	inactive
CCOC(=O)CN=C1CC(C)(C)CC2=C1Sc1ncnc(N(C)C)c1N2	inconclusive: 63.1 µM [inhibitor, partial curve, poor fit]

Compound	Potency
Cc1cc(C)n(CC(=O)O)n1	inconclusive: 89.1 µM [inhibitor, single point]
CCOc1ccc(C2NC(=O)C(C#N)=C(S)N2c2cccc(C)c2)cc1OC (stereo unspecified)	inactive
CN1CCCN(Cc2cccc3ccccc23)CC1	active: 25.1 µM
CC(C)(C)c1cc(C(=O)N/N=C/c2ccc(O)cc2)n(-c2ccccc2)n1	inconclusive: 63.1 µM [inhibitor, partial curve]
COc1ccc(N2CCN(c3nc(-c4cccs4)nc4ccccc34)CC2)cc1	inconclusive: 5.62 µM [inhibitor, full curve]
COCC(C)n1c(C)cc(C(=O)CSc2nnc(Nc3ccccc3F)s2)c1C (stereo unspecified)	inconclusive: 50.1 µM [inhibitor, partial curve]
COc1ccc(CC(=O)NCC(c2cccs2)S(=O)(=O)c2ccc(Cl)cc2)cc1 (stereo unspecified)	active: 17.8 µM
COCCCN1C(=O)C(O)=C(C(C)=O)C1c1ccccn1 (stereo unspecified)	active: 79.4 µM
COc1ccc(-n2ccn(CC(=O)NCc3ccc(C)cc3)c(=O)c2=O)cc1OC	inactive
CCN(CC)S(=O)(=O)c1cccc(C(=O)OCC(=O)N2CC(=O)Nc3ccccc32)c1	inactive
O=C(CN1CCN(C2CCCCC2)CC1)Nc1ccccc1N1CCCCC1	inconclusive: 79.4 µM [inhibitor, single point]
Cc1c(C(=O)N2CCCC2)oc2c1-c1nn(CC(=O)NC(C)c3ccccc3)cc1CC2 (stereo unspecified)	inconclusive: 56.2 µM [inhibitor, partial curve]
O=C(NC(=S)Nc1ccccc1C(=O)O)c1ccc(-c2ccc(Br)cc2)o1	inconclusive: 39.8 µM [inhibitor, partial curve]
CCC(C(=O)Nc1cc(OC)ccc1OC)n1c(C)c2cnn(-c3ccccc3)c(=O)c2c1C (stereo unspecified)	inconclusive: 50.1 µM [inhibitor, partial curve]
COc1ccccc1N(C)S(=O)(=O)c1ccc(C(=O)Nc2nc(C)cs2)cc1	inconclusive: 50.1 µM [inhibitor, partial curve]
O=C(NC(=S)Nc1ccc(N2CCCC2)cc1)c1ccc(F)cc1	inconclusive: 56.2 µM [inhibitor, partial curve]
O=C(COC(=O)/C=C/c1ccc(C(F)(F)F)cc1)Nc1ccc2[nH]c(=O)[nH]c2c1	inconclusive: 20 µM [inhibitor, partial curve]
CSc1ccc(C2=C/C(=C3/SC(=S)NC3=O)c3ccccc3O2)cc1	inconclusive: 1.58 µM [inhibitor, full curve, poor fit]
C/C=C/C(=O)Nc1ccccc1Br	inactive
Cc1ccc(Oc2cc(NN3CCCCC3)c([N+](=O)[O-])cc2[N+](=O)[O-])c(Cl)c1	inconclusive: 39.8 µM [inhibitor, partial curve]
CC(C)C(NC(=O)c1ccc(F)cc1)C(=O)N1CCN(c2ccccn2)CC1 (stereo unspecified)	inactive
CCCCN1C(=N)N([C@@H](C)CN2CCC[C@H]2CN2C(N)=NC[C@H]2CC(C)C)C[C@H]1Cc1ccccc1	inconclusive: 89.1 µM [inhibitor, partial curve]
COc1ccc(CCNC(=O)CCc2cn(Cc3ccc(C)cc3)c3ccccc23)c(OC)c1OC	inconclusive: 12.6 µM [inhibitor, full curve, poor fit]
